Laboratory results published in PMC4117486, “Investigation of Endoglin Wild-Type and Missense Mutant Protein Heterodimerisation Using Fluorescence Microscopy Based IF, BiFC and FRET Analyses” (PLoS ONE, 2014).

Target: T1, endoglin wild-type, EYFP- or ECFP-tagged (human, UniProt P17813 26-658)
T1 construct: endoglin (CD105), human, wild type; EYFP-tagged with the ECFP-tagged receptors and with soluble ECFP; ECFP-tagged with the EYFP-tagged mutants; both versions together for the homodimer; also called endoglin^wt-EYFP; endoglin^wt-ECFP; source: CHO cells, transiently co-transfected (50 ng of each construct per 100 000 cells), in living cells; not shown: EYFP (acceptor) or ECFP (donor), C-terminal, …
T1 sequence (looked up): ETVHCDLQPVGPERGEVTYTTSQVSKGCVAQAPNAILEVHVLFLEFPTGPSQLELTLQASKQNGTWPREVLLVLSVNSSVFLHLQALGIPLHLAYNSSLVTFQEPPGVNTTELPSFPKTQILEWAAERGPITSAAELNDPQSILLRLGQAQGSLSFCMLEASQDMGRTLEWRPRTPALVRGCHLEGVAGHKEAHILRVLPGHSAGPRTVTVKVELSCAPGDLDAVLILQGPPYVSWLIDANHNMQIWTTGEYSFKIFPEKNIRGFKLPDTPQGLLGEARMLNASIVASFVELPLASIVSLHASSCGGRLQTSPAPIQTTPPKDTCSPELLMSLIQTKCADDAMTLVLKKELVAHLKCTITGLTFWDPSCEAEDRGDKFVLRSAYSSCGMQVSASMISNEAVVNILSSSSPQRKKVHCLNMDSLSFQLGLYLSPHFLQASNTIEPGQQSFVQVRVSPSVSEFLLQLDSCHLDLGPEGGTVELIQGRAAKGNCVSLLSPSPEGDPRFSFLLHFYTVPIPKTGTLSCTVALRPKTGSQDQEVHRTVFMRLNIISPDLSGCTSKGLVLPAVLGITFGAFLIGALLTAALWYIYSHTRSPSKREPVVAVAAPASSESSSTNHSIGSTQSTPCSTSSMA
Experiment: FRET or BRET; microscopic FRET in living CHO cells, ECFP donor and EYFP acceptor, 50 ng of each construct per 100 000 cells, 24 h after transfection, HEPES buffered ringer solution; FRET index (FI) = FRET efficiency x area with FRET; FI<51 no interaction, 51-99 weak or false positive, >=100 interaction; at least 30 cells per sample
Conditions: partners not purified

% of cells clearly FRET-positive (FRET index >=100): 12%
% of cells in FRET index group 2 (FI 51-99, weak or false positive): 8%
mean FRET index of the positive cells: 166 FRET index
B1: ALK1, ECFP- or EYFP-tagged (receptor)
chain: [about 100 residues not spelt out]LALILGPVLALLALVALGVLGLWHVRRRQEKQRGLHSELGESSLILKASEQGDSMLGDLLDSDCTTGSGSGLPFLVQRTVARQVALVECVGKGRYGEVWRGLWHGESVAVKIFSSRDEQSWFRETEIYNTVLLRHDNILGFIASDMTSRNSSTQLWLITHYHEHGSLYDFLQRQTLEPHLALRLAVSAACGLAHLHVEIFGTQGKPAIAHRDFKSRNVLVKSNLQCCIADLGLAVMHSQGSDYLDIGNNPRVGTKRYMAPEVLDEQIRTDCFESYKWTDIWAFGLVLWEIARRTIVNGIVEDYRPPFYDVVPNDPSFEDMKKVVCVDQQTPTIPNRLAADPVLSGLAQMMRECWYPNPSARLTALRIKKTLQKISNSPEKPKVIQ
notes: ALK1, TGF-β type I receptor; The methods name only the EYFP version; the results use an ECFP-tagged version; also called ALK1-EYFP; source: CHO cells, transiently co-transfected, in living cells
